Assay results reported in the RNAGym collection of RNA variant scans (doi:10.7554/elife.90254).
The source gives no read counts; variants with many changes may rest on few reads.

B1: LINE1-mini (parent)
chain: GGCAGAGCUCAACACAGCGUGGCAAAGUGGCUGUGGCUAGACUGCC

Variants of: B1
Assay: self-cleavage, relative activity (ratio to wild type); higher = more cleavage; in vitro, sequencing; the parent is a self-cleaving ribozyme

Variant | self-cleavage
GGCAGAGCUCAACACAGCGUGGCAAAAUGGCCGUGGCUAGACUGCU [G27A U32C C46U] | 0.12
GGCAGAGCUCAACACAGCGUGGCGAAGUGGCUGUGGCUACACUCUA [A24G G40C G44C C45U C46A] | 0.05
GACAGAGAUUAACACAGCGUGGCAAAGUGGCUGCAGCUAGACUGGC [G2A C8A C10U U34C G35A C45G] | 0.23
GGCAAAGCUCAACACAGCGUGGCAAAGUGGCUGUGUCUACACUGCC [G5A G36U G40C] | 0.06
GGCAGAGCUCAAGACAGCGUCGCAAAAUGGCUGUGGCUAGACUGCC [C13G G21C G27A] | 0.28
GGCUGAGCUCAACACAUCCUGGCAGAGUGGCUGGGGCUAGACUGCC [A4U G17U G19C A25G U34G] | 0.01
GGCAGAGCUCAACACAGCCUGGCAAAGUGGCUGUGCGUAGACUGCC [G19C G36C C37G] | 0.1
GGAAGAGCUCAACACAGCGUGGCAAACUGUCUGUGGAUAGACUGCC [C3A G27C G30U C37A] | 0.61
GGCAGAGCUCAUUACAGCGUGGCAAAGUGGGUGUGGCUAGACUUCC [A12U C13U C31G G44U] | 0.01
GGCAGGGCUCAACCCAGCGUGGCAAAGUGGCUGUGGUUAGACUGCC [A6G A14C C37U] | 0.05
GGCAGAGCUCAACACAGCGUGCCAAAGUAGCUGUGGACAGACUGCC [G22C G29A C37A U38C] | 0.07
GGCAGAGCUUAAUACAGCGUGGCAAAGUGUCUGUGGCUAGACUGCC [C10U C13U G30U] | 0.07
GGCUGAGCUCAACACAGCGUGGCAAAGUGGCUGUGGCAAGACUGUC [A4U U38A C45U] | 0.07
GGCAGAUCUCUACACAGCGUGGCCAAAUGGCUGUGGCUAGACUGCC [G7U A11U A24C G27A] | 0.06
GGCAGAACUCAACACAGCGUGGCAAAGUAGCUGUGGCUAGAUUGCC [G7A G29A C42U] | 0.16
GGCAGAGCUUAACACAGCGUUGCAAAGUGGCUGUGGCUAGACUACC [C10U G21U G44A] | 0.12
GGCAGUGCUCAACACGGCCUGGCAAAAGGGCUGUCGCUAGACUGGC [A6U A16G G19C G27A U28G G35C C45G] | 0.03
GGCAGAGCUCAACACAGCGUGGCAAACUGGCAGUGGCUAGAAUGCC [G27C U32A C42A] | 0.09
GGCAGUGCUCAACACCGCGUGGCAAAGUGACUAUGGCUAGACCGCC [A6U A16C G30A G33A U43C] | 0.09

Variant | self-cleavage
GGCAGAGCUCAACACAGCGUGGAAAAGUGGCUGUGACUACACUGCC [C23A G36A G40C] | 0.57
GGCAUAGCUCAACAUAGCGUGGCAAAGUGGCUGUGCCUAGACUGCC [G5U C15U G36C] | 0.02
GGCAGAGCUCUACACAACGUGGUAAAGUGGCUGUGGCUAUACUGCC [A11U G17A C23U G40U] | 0.01
GGCAGAAAUCAACACAGCGUGGCGACGUGGCUGUGGCUAGACUGCC [G7A C8A A24G A26C] | 0.15
GGAAGAGCUCAAAACAGCGUGGCAAAGUGGCUGUGGCUAGCCUGCC [C3A C13A A41C] | 0.39
GGCAGAGCUCAACACAGCGGGGCAAAGUGGUUGUGGCAAGACUGCC [U20G C31U U38A] | 0.11
GGCACAGCUCACAACAGCGUGGCAAAGUGGCUGUGGCUAGACUGCC [G5C A12C C13A] | 0.02
GGCAGAGCUCAACACGGCGUGGCAAAGCGGCGGUGGCUAGACUGCC [A16G U28C U32G] | 0.06
GGCACAGCUCAACACAGCGUGGCAAUGUAGCUGUGGCUAACUGCCA [G5C A26U G29A G40A A41C C42U U43G G44C C46A] | 0.01
AGCAGAGCUCAACACAGUGUGGCAAAUUGGCUGUGGCUAGACUGCC [G1A C18U G27U] | 0.15
GGCAGAGCUCAACAAAGCGAGACAAAGUGGCUGUUGCUAGCCUGCC [C15A U20A G22A G35U A41C] | 0.03
GGCAGAGCGCAACACAGCGUGGCAAUGUGGCUGUGGCUAGACUCCA [U9G A26U G44C C46A] | 0.03
GGCAGAGCUCAACACAGCGUGGCAAAGUGGCUGGGGCUAGAAUGGC [U34G C42A C45G] | 0.03
UGCAGAGCUAAACACAGCGUGGCCAAGUGGCUGUGGCGAGACUGCC [G1U C10A A24C U38G] | 0.03
GGCAAAGCUCAACACAGCGAGGCAAAGUGGCUGUGGCUAGACUGCU [G5A U20A C46U] | 0.09
GGCAAAGCUCAACACUGCGUGGCAAAGUGGCUGUGGCUAGACUGAC [G5A A16U C45A] | 0.02
GGUCGAGCUAAACGCAGCGUGACAAAGUGGCUGUGGCUUGAAUGCC [C3U A4C C10A A14G G22A A39U C42A] | 0.03
GGCAGAGCUAAACACAGCGUGUCAAAGUGGCUGUCGCUAGACUGCC [C10A G22U G35C] | 0.02
GGCAGAGCUCAACACAGUUUGGCAAAGUGGCUAUGACUAUACUGCG [C18U G19U G33A G36A G40U C46G] | 0.02

Variant | self-cleavage
GCCAGAGCUCAACGCAGCGUGGCAAAAUGUCUGUGGCUAGACUGCC [G2C A14G G27A G30U] | 0.01
GGCAGAGCUAAACACAGCGUGGCAGUGUGGUUGUGGCUAGACUGCC [C10A A25G A26U C31U] | 0.01
GGCAGAGCUCAACACAGCGGCGCCAAGUAGCUCUGGCUAGACUGCG [U20G G21C A24C G29A G33C C46G] | 0.03
GGCUGAGCUCAACACAGCGUGGCAAAGAUGCUGUGGCUAGACUGCC [A4U U28A G29U] | 0.08
GGCAGAACUAAACACAACGUGGCACAGUGGCUGUGUCUAGACUGCC [G7A C10A G17A A25C G36U] | 0.01
GGCAGAGCUCAACACAGCGUGCCAAAGUGGCUACGGCUAGACUGCC [G22C G33A U34C] | 0.04
GGAAGAGCUCAACACAGCGUGGGAAAGUGGCUGUGGCUAGACUCCA [C3A C23G G44C C46A] | 0.21
GGCAGAGCACAACACUGCGUGGCAAAGUGACUGUGGCGAGACAGCC [U9A A16U G30A U38G U43A] | 0.1
GGAAGAGCUCGACACAGCGUGGCCAAGUGGCUGUGGUGAGACUGCC [C3A A11G A24C C37U U38G] | 0.01
GGCAGAGCUCAACACAGGGUGGCAAAGUGGCUUUGGCUAAACAGCC [C18G G33U G40A U43A] | 0.03
GGCUGAGCUCAACACAGCGUGGCAAACUGGCUUUGGCUAGACUGGC [A4U G27C G33U C45G] | 0.06
GGCAGAGCUCAACACAGCGUGGAAAAGUGGCUGUGGCUAGACUUCU [C23A G44U C46U] | 0.12
UGCAGAGCUCAACACAGCGUGGCAUAGUAGCUGUGGCUAGACUGCC [G1U A25U G29A] | 0.29
GGCAGAGUUCAACAUAGCAUGGCAAAGUGGCUGUGCCUAGACUGCC [C8U C15U G19A G36C] | 0.09
GGCAGAGCUCAACACAGCGUGGCAAAGAGGCUAGGGCUAGACUGCC [U28A G33A U34G] | 0.11
CGCAGAGCUCACCGCAGCGUGUCAAAGUGGCUGUGGCUAGACUGCC [G1C A12C A14G G22U] | 0.01
GGCAGAGCUCAACACAGCGUGGCAAAGUGGCUCUGGCAAGACUGAC [G33C U38A C45A] | 0.01
GUCAGAGCUCAACAAAGCGUGGCAAAUUGGCUGUGGCUAGAUUGCC [G2U C15A G27U C42U] | 0.01
